From the supplement of paper PMC4967469

Assays:
Assay in all cases: Viability of human cancer cell lines after 72 h of drug (GDSC screen)
GDC0941 = compound: CS(=O)(=O)N1CCN(Cc2cc3nc(-c4cccc5[nH]ncc45)nc(N4CCOCC4)c3s2)CC1 [GDC0941]; conditions: top dose 4 µM; screen: GDSC drug entry 1527; top dose inferred
Method: (§1)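 Human cancer cell lines in 384-well plates, medium with 10% serum, drug for 72 h over a 256-fold dose range (nine 2-fold or five 4-fold steps up to the top dose). Adherent lines were fixed and stained with the nucleic acid dye Syto60, suspension lines read with resazurin; signal relative to control wells, capped at 0 and 100%. One two-parameter sigmoid per drug and line, fitted in a mixed model over all curves with the slope shared within a line.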

Pazopanib = compound: Cc1ccc(Nc2nccc(N(C)c3ccc4c(C)n(C)nc4c3)n2)cc1S(N)(=O)=O [Pazopanib]; conditions: top dose 8 µM
Method: as §1

AR-42 = compound: CC(C)[C@H](C(=O)Nc1ccc(C(=O)NO)cc1)c1ccccc1 [AR-42]; conditions: top dose 5.12 µM; top dose inferred
Method: as §1

CEP-701 = compound: C[C@]12O[C@H](C[C@]1(O)CO)n1c3ccccc3c3c4c(c5c6ccccc6n2c5c31)CNC4=O [CEP-701]; conditions: top dose 2 µM; top dose inferred
Method: as §1

| Cell Line | AUC (GDC0941) | IC50 (GDC0941) [nM] | AUC (Pazopanib) | IC50 (Pazopanib) [nM] | AUC (AR-42) | IC50 (AR-42) [nM] | AUC (CEP-701) | IC50 (CEP-701) [nM] |
| --- | --- | --- | --- | --- | --- | --- | --- | --- |
| NUGC-3 (stomach, adherent) | 0.821 | 2690 | 0.88 | > 8000 | 0.71 | 1360 |  |  |
| OAW-28 (ovary, adherent) | 0.722 | 1280 | 0.913 | > 8000 | 0.445 | 218 |  |  |
| OCUM-1 (stomach, adherent) |  |  |  |  | 0.981 | > 5120 | 0.555 | 180 |
| OSC-19 (head and neck, adherent) | 0.841 | 2940 | 0.984 | > 8000 | 0.533 | 395 |  |  |
| OVCA420 (ovary, adherent) | 0.555 | 372 |  |  | 0.395 | 150 | 0.833 | 1940 |
| OVCAR-3 (ovary, adherent) | 0.642 | 645 | 0.911 | > 8000 | 0.987 | > 5120 |  |  |
| OVK-18 (ovary, adherent) | 0.717 | 1110 |  |  | 0.983 | > 5120 | 0.773 | 862 |
| PANC-10-05 (pancreas, adherent) | 0.756 | 1730 | 0.898 | > 8000 | 0.576 | 549 |  |  |
| PCI-38 (head and neck, adherent) | 0.878 | > 4000 | 0.985 | > 8000 | 0.645 | 809 |  |  |
| PEO1 (ovary, adherent) | 0.747 | 1330 |  |  | 0.538 | 408 | 0.678 | 401 |
| PL18 (pancreas, adherent) | 0.987 | > 4000 | 0.972 | > 8000 | 0.723 | 1370 |  |  |
| PWR-1E (prostate, adherent) | 0.921 | > 4000 |  |  |  |  | 0.733 | 575 |
| RCC-AB (kidney, adherent) | 0.774 | 2070 |  |  | 0.433 | 199 | 0.691 | 511 |
| RD (rhabdomyosarcoma, adherent) | 0.728 | 1190 | 0.885 | > 8000 | 0.608 | 655 |  |  |
| RERF-GC-1B (stomach, adherent) | 0.866 | > 4000 | 0.978 | > 8000 | 0.878 | > 5120 |  |  |
| RT-112 (bladder, adherent) | 0.665 | 748 | 0.625 | 1140 | 0.54 | 414 |  |  |
| SK-CO-1 (large intestine, adherent) | 0.797 | 1760 | 0.97 | > 8000 | 0.617 | 658 |  |  |
| SK-GT-2 (stomach, adherent) | 0.825 | 2580 |  |  |  |  | 0.891 | > 2000 |
| SK-GT-4 (oesophagus, adherent) | 0.694 | 1010 |  |  | 0.513 | 351 | 0.544 | 170 |

| Cell Line | AUC (GDC0941) | IC50 (GDC0941) [nM] | AUC (Pazopanib) | IC50 (Pazopanib) [nM] | AUC (AR-42) | IC50 (AR-42) [nM] | AUC (CEP-701) | IC50 (CEP-701) [nM] |
| --- | --- | --- | --- | --- | --- | --- | --- | --- |
| SK-LU-1 (lung adenocarcinoma, adherent) | 0.765 | 1860 | 0.768 | 3820 | 0.766 | 2390 |  |  |
| SK-MEL-5 (melanoma, adherent) | 0.804 | 2560 |  |  | 0.978 | > 5120 | 0.587 | 228 |
| SK-MEL-28 (melanoma, adherent) | 0.762 | 1400 | 0.984 | > 8000 | 0.753 | 1680 |  |  |
| SK-MG-1 (glioma, adherent) | 0.614 | 515 |  |  | 0.664 | 920 | 0.692 | 436 |
| SNU-81 (large intestine, adherent) | 0.704 | 1160 |  |  | 0.977 | > 5120 | 0.835 | > 2000 |
| SNU-398 (liver, adherent) | 0.903 | > 4000 | 0.789 | 3690 | 0.594 | 586 |  |  |
| SNU-407 (large intestine, adherent) | 0.83 | 3110 |  |  | 0.57 | 515 | 0.705 | 526 |
| SNU-C5 (large intestine, adherent) | 0.804 | 2250 |  |  | 0.657 | 917 | 0.527 | 149 |
| SW156 (kidney, adherent) | 0.922 | > 4000 | 0.981 | > 8000 | 0.856 | 4860 |  |  |
| SW837 (large intestine, adherent) | 0.898 | > 4000 | 0.974 | > 8000 | 0.41 | 167 |  |  |
| SW900 (lung squamous cell carcinoma, adherent) | 0.873 | > 4000 | 0.972 | > 8000 | 0.636 | 811 |  |  |
| SW1088 (glioma, adherent) | 0.63 | 638 | 0.831 | 7330 | 0.853 | > 5120 |  |  |
| SW1463 (large intestine, adherent) | 0.861 | > 4000 | 0.966 | > 8000 | 0.719 | 2130 |  |  |
| T-24 (bladder, adherent) | 0.904 | > 4000 | 0.96 | > 8000 | 0.726 | 1350 |  |  |
| TCCSUP (bladder, adherent) | 0.734 | 1290 | 0.968 | > 8000 | 0.668 | 1010 |  |  |
| TE-4 (oesophagus, adherent) | 0.7 | 913 |  |  | 0.638 | 767 | 0.631 | 286 |
| TGBC24TKB (biliary tract, adherent) | 0.687 | 800 | 0.964 | > 8000 | 0.556 | 450 |  |  |
| U031 (kidney, adherent) | 0.66 | 706 | 0.983 | > 8000 | 0.839 | 3680 |  |  |
| VM-CUB-1 (bladder, adherent) | 0.789 | 1700 | 0.987 | > 8000 | 0.733 | 1440 |  |  |

Lines with a small IC50 respond at low doses; where the fit passes the top or lowest dose, that dose stands as a limit. For AUC the same curve is integrated over the 256-fold range of doses and scaled to a fraction; values near 1 show little effect. For part of these data: Any top dose called inferred was derived from the fitted curves, not read from the paper. For part of these data: An entry number marks a drug with two screens in the source, which often give different values.
